± gives the standard deviation of the averaged measurements. This is one part of the list.
System: PfAP2-LT AP2 domain (GST-tagged)
Test: gcPBM binding intensity (ln(normalized median fluorescence intensity)); higher = stronger DNA binding
Procedure, shortened: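 In this array assay, P. falciparum DNA-binding domains with a GST tag, expressed in E. coli, were applied for 1 h to primer-extended double-stranded 36-bp intergenic genomic probes and negative controls on an Agilent 4 × 180k array. Bound protein was visualised with Alexa488 anti-GST antibody at 488 nm. Binding intensity is the highest Masliner-normalised natural-log median intensity across replicate spots of either probe orientation.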

Row | Sequence | gcPBM binding intensity (ln)
1 | ATTAACACATTTAAGTGTACATATATAAATATATAT [XGTACX_site7098] | 8.76 ± 0.45
2 | GAAACAAAATTATTTTGTACATATGACTGTAGATAT [XGTACX_site972] | 8.87 ± 0.36
3 | GGAACGTATATTTTCACACACTCTCAAAAGTACAAG [CACACA_site2301] | 9.05 ± 0.42
4 | ATATAACTCAAGGGCACACATATACCTTTCCTTTTT [CACACA_site4390] | 9.07 ± 0.42
5 | TGTGCACGTTCTGTGACACACATTTAAATGTGCTTA [CACACA_site176] | 8.96 ± 0.45
6 | AAAGAAGGATAATAATGTACAAGCAAAAAAATAAAA [XGTACX_site466] | 8.96 ± 0.53
7 | AATATGTGAATATAATCACACACAATACGGAAACAC [CACACA_site8875] | 9.84 ± 0.29
8 | AAATAATTATTTATCACACATATGTATTTATATATA [CACACA_site4589] | 8.8 ± 0.4
9 | CTTTTTTTAATGATAACACACATGTTGTGCATAGAC [CACACA_site3270] | 9.04 ± 0.42
10 | TTAGTTTCCCAAATATGTACATAAATATAAATCATA [XGTACX_site2746] | 8.52 ± 0.38
11 | ATTTCAACAAATATAACACACAATGGATAAGAATAA [CACACA_site1974] | 8.96 ± 0.43
12 | GTAAGAACACTTTTGTGGTTACTTAAAAGTGTATAT [GTGCAC_negctrl_site422] | 8.68 ± 0.39
13 | TTATTATTTTTTAACACACACATATATATTATATCT [CACACA_site4906] | 9.17 ± 0.47
14 | TGCTTATATGTTGTTACACACTAAAATAGTTAGATA [CACACA_site1277] | 8.68 ± 0.33
15 | AATACAGTTAGAGAAAGTACACAACTAATATACATA [XGTACX_site8814] | 8.88 ± 0.57
16 | AACATATATATAATATGTACATAATATATATAAATG [XGTACX_site1161] | 8.91 ± 0.43
17 | ACATATATTTCAAAGTGTACGCACAATTTTTTTTAC [XGTACX_site6166] | 8.87 ± 0.45
18 | AGTGTTAAAAATGAGGGTACATATAAAATACAGTTC [XGTACX_site457] | 8.98 ± 0.4
19 | TAATCATTTTAGCTTACACACAAAATTTGGTTATAA [CACACA_site5604] | 8.78 ± 0.35
20 | ACAGGATTGGTTCAAACACACATATTATATGACTAT [CACACA_site4536] | 9.04 ± 0.39
21 | TATTTTAATTAATATACACACGCTTATATATATATA [CACACA_site7909] | 8.84 ± 0.45
22 | TATTATATATATAACTGTACGTTTATAATATAAAAA [XGTACX_site3778] | 8.32 ± 0.38
23 | TTTCTTTTTTTTTTTTGTACATATTTTAATTATTTT [XGTACX_site8676] | 8.66 ± 0.67
24 | TACAAACTATGATGCACACATATATATCTGTATCCA [CACACA_site4809] | 9.17 ± 0.41
25 | ATTATGTTATATACACGTACGTGTGCTTTATAATTA [XGTACX_site2728] | 9.13 ± 0.37

From the supplement of paper PMC11417369
